The full ranking holds about 33,000 sequences; the median of “E-score (-0.5 to 0.5)” is about -0.054, and the highest 2% start at about 0.39. Some of the results follow.

For the test, the target named is Ylr278c (UniProt Q05854). Kind of test: PBM E-score (8-mer binding enrichment) (E-score (-0.5 to 0.5)); higher = stronger / more preferred TF binding; most listed sequences are background and not binding sites. As to conditions: protein concentration: 200 nM; construct: GST-DNA-binding domain. The procedure, abridged: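 Detection of bound protein used fluorescent anti-GST, with scans normalised by masliner. The proteins were GST-tagged yeast transcription factors applied at about 100-200 nM to universal all-10-mer Agilent arrays made double-stranded by primer extension. Each ungapped eight-base word, pooled with its reverse complement, was scored with an E-score from the Universal PBM Analysis Suite.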
On to CGCTAGTC, for which the “PBM E-score” value was -0.161.
As for GTCCTCAC, the figure is -0.113; as for CTCGTCTA, -0.164.
Regarding AAGTACAC, the “PBM E-score” value was -0.00177.
As for AAGCAATA, the figure is -0.0625.
To ATAGGCCC belongs -0.0168.
As for AACGGCTA, the figure is -0.0515; as for CAAAAGGA, -0.159.
As for CGCACATA, the “PBM E-score” value was -0.0716.
On to AGAGAGCT, for which the “PBM E-score” value is -0.15.
As to CCAGGCCG, the “PBM E-score” value amounted to 0.065.
As for AGTTGGGG, the figure is 0.00703; as for ATTCAAGA, -0.13.
To GACGAACA belongs 0.0976.
As for GAAAACCA, the figure is -0.182; as for ATCGCATA, 0.00108.
Turning to ATGGGATA, the “PBM E-score” value was -0.122.
For the sequence TGACTCAA, the “PBM E-score” value is -0.346.
To ATCCAAAT belongs -0.0681.
To GCGGGCCC belongs 0.222; to CCCTCTTC, -0.312.
In the case of ATTCCCAA, the “PBM E-score” value was -0.06.
To ACTGCTCA belongs -0.169; to GGTCCTTA, 0.0251.
As for AGATTCCG, the figure is 0.387; as for ACATTAAC, -0.0113.
To AGTTCCGC belongs 0.383; to ACGAGGAT, -0.319; to CTCCTTAC, -0.209.
Regarding AGCGTCCT, the “PBM E-score” value was -0.297.
To GTTTTTCA belongs 0.135.
As for AACAGTAC, the figure is -0.104.
To CTTGAGGC belongs -0.045; to ATTGTACA, -0.0426.
Consider TTATGCAA, for which the “PBM E-score” value is -0.333.
To AAGTACGC belongs -0.18; to ACGCTGGC, -0.0381; to GTGACAGA, -0.121.
To ACTGAACG belongs -0.187; to CGCCGGCA, 0.39; to CAAAGGCC, 0.101.
ACGGGCCA: the “PBM E-score” value was 0.149.
As for GACTGTGC, the figure is -0.274.
As for CCCCTGCG, the figure is -0.137; as for CCGACCCA, 0.268.
As for GAAACGAC, the figure is 0.0245; as for AAAAAAAC, -0.0699.
In the case of ACCCCGTA, the “PBM E-score” value stood at 0.214.
As for CAAGGACG, the figure is -0.118; as for ACCTAACA, -0.0051.
As for GCTGCACA, the figure is -0.148.
To ACTTGAGG belongs -0.0433; to AGACAGTG, -0.17; to AGACTTTA, -0.217.
For the sequence GAAATCTA, the “PBM E-score” value turned out to be 0.123.
In the case of AGCACAGA, the “PBM E-score” value is -0.0295.
With ATGTCTGG, the “PBM E-score” value was 0.112.
CCTGTCGC: the “PBM E-score” value is -0.144.
In the case of AGAATTCT, the “PBM E-score” value came to 0.138.
Take AGGGAATG: the “PBM E-score” value was -0.205.
As for CCTTTTTC, the figure is 0.00118; as for GTAGTTTA, 0.0771; as for GAATAGCA, -0.0928.
As for ACACAAAG, the figure is -0.233.
With CAAGTATG, the “PBM E-score” value was -0.255.
As to TCGAGCGA, the “PBM E-score” value was found to be 0.0809.
As for CAAATCAA, the figure is -0.167.
To CCGCACAC belongs 0.0213.
For the sequence AGATCGGA, the “PBM E-score” value was found to be 0.43.
With CCTGATTA, the “PBM E-score” value stood at 0.0108.
As for AATTGTCC, the figure is 0.149; as for ACAGTACA, 0.0277; as for ATGTGGCG, 0.137.
Take GCCCTCGC: the “PBM E-score” value was -0.0909.
As for GTGTATAA, the figure is -0.181.
In the case of CCCGGGCC, the “PBM E-score” value came out at 0.308.
As for CCGACTGA, the figure is 0.2.
As for CACACTCA, the figure is -0.138; as for CCGACGCC, 0.361; as for AATAGGGT, -0.179.
Turning to AGCCTCCC, the “PBM E-score” value was -0.0938.
To ATACACTA belongs -0.122; to GAAGTCAA, -0.0583; to AGCCTTTC, -0.15.
To ATTCAACA belongs -0.0965; to CCTTTAAC, -0.0118; to AATCCTTA, -0.194.
To ATTCGCGA belongs 0.0332; to CCCCCCCG, -0.31; to AAAAGCCT, -0.224.
ATAGTCAT: the “PBM E-score” value is -0.19.
Take CACGCTCC: the “PBM E-score” value amounted to 0.129.
As for CAGATATA, the figure is -0.131; as for CGAATCCG, 0.352.

Values taken from the supplement of paper PMC3334620.
